# Results: the RNAGym collection of RNA variant scans (doi:10.7554/elife.90254)
# The source gives no read counts; variants with many changes may rest on few reads.
# B1: LINE1-mini (parent)
# chain: GGCAGAGCUCAACACAGCGUGGCAAAGUGGCUGUGGCUAGACUGCC
# Variants of: B1
# Experiment: self-cleavage, relative activity (ratio to wild type); higher = more cleavage; in vitro, sequencing; the parent is a self-cleaving ribozyme
row,Variant,self-cleavage
1,C15U C18A C23G G30A U32A C42G C46A,0
2,G2A C3U A6C U20C U34G C37U,0.19
3,C23G A25C G27C C42U,0.47
4,C18G G19C G27C G29A A39C,0.39
5,A4C U34G G35U,0.1
6,A25U G27C A39G,0.09
7,A6U U9G A14C,0.33
8,C8A G19A C42U C46A,0.08
9,C3U C18A G30C,1.5
10,G1U C15U U28A,0.05
11,A26G U34A C45G,0.1
12,G2U A16G C42A,0.16
13,G7A A12C C13U G17U U43C,0.08
14,G2A G17U A25C,0.12
15,A16C C18A G19A U20G G27U U32C A41G,0.01
16,C18U C23U G29U G36U,0.07
17,C23U U28A G30A,1.7
18,G27U G30A G33C,0.06
19,A6C G40C C45U,0.13
20,C3G A4U G21U G29U U43A,0.04
21,G19U G27U G40C,0.16
22,A11G C18U G19U,0.04
23,A25C G27U C31U U34A,0.02
24,A24G U34G A41G,0.03

row,Variant,self-cleavage
1,G22C C23A G36A,0.05
2,C3U A25U G35U,0.04
3,A4C A6U C45G,0.26
4,G2C C10A G21U C23A U34G,0.01
5,C3A C23U U28C C31A,0.14
6,G2C G22C G35U G44C,0.02
7,C10U C15G C18A G33U C46G,0.04
8,G1A G5A G7A,2.7
9,A11G C13G C23U U28A,0.02
10,A14C U20G A26U U28C G33A,0.01
11,A12C U28G U32A,0.02
12,A4U G17A A26C G30C G40U,0.02
13,C8U A25U G30C,1.26
14,A16G G19A A41U,0.13
15,C3G U9A G22U A26U U34C,0.1
16,G2A C15U U28G G44A,0.29
17,G7A C18U C46G,0.15
18,C10G A16G A39G,0.03
19,C13U U34G C46A,0
20,A12U G29C C37U G40A,0
21,C13U G22C G35U C46U,0.39
22,C10G C15A C37A,0
23,A4C A16C A24C G36U C46U,0.15
24,C37U U38A A41U,0

row,Variant,self-cleavage
1,G19U U20A A26U U38C,0.14
2,G7A G22U C23A G35C U38C,0.17
3,G1A G2A A24U C37G A41U,0.57
4,G5A A12G G21A G30C,0.01
5,G2C C3G G19C U28A C46U,0.06
6,C37G U43A G44A,0.22
7,U34C G35C U38C C42G,0
8,G27U G29A G30A G33U,0.31
9,G21U C23U G30C G40C,0.07
10,C13A A24C C37U G40U C46A,0.02
11,A11C G22A G33A G36U C46G,0
12,G27U G30U A39C C45G,0.37
13,C3A A6C C15A U43C,0.08
14,U20G G36U C37U,0.04
15,C15A G19U U20C,0.09
16,G1C C15A A41G C45G,0.02
17,C15G C18A C46U,0.04
18,A4C A26G G30C C45U,0.02
19,C18A A26G G27U,0.02
20,A12U G29U G35U G36A,0.09
21,C13U U28C A39C,0.06
22,C3A C18G A25U U38A A41G,0.14
23,G19U G22A G33C,0.03
24,G2U A4C C13G,0.15

row,Variant,self-cleavage
1,C10A C18A A25U G30A C31U,0.02
2,G29U G33C C46A,0.02
3,C15U A26C C31A,0.14
4,A12C G29A A39U,0
5,U9A A26U G36A G40C A41U,0.04
6,A4U U9A A14C A24C G29U U32G,0.05
7,G5C A14U C15A G29C,0.05
8,G5U C10U A41U C45G,0.05
9,G7C G27A U32C G36C,0.02
10,G21U G40U C42G,0.28
11,C8G C10A G22A,0.01
12,G7C G29U G44A,0.37
13,A6U C8A C10A C15U G17U G36C,0.01
14,A6G G27C G29U U38G,0
15,A16U U20A C31A,0.05
16,C3A A14C A24C A41C C46A,0.06
17,U20A G22A C23A,1.66
18,A4U U28G G30U,0.03
19,G2A A25G C46A,0.82
20,A14C C15U C23A C45A C46U,0.13
21,C10G A11U C18A C37A C45G C46U,0
22,U9C A14C G27A,0.03
23,C10U A24G G30U G33U,0.02
24,G5U C8A G21U G29U,0.07

row,Variant,self-cleavage
1,C15U G17A G19U,0.03
2,C3U C18U G19A G27U G33U G36C,0.01
3,A12C G27U U34C,0.01
4,A4C G22C C37U,0.04
5,G1U G2U G21U,0.09
6,G2A G27U C42A,0.34
7,U20A C37A C46A,0.07
8,G1C C8A C10G G40A,0
9,G27U A39G U43A,0.04
10,G1U G5U A39C G44C,0.01
11,G5U C10A G19A A24G G40C C42U,0.01
12,G5A G17U C23G U32A,0.06
13,G17U C23U A25U,0.13
14,G5C G7C G29A G36U,0.06
15,G17U A41G C42U G44C,0.02
16,C3A G7U A11U G19U G30A,0.03
17,U9A A25C A39G,0.04
18,G2A C10U A12U A25C U28G G30C G35U G40U,0.02
19,G19C C23A G27A G30A C46U,0.66
20,G5U A12U C18G A39G,0.03
21,C13U C15U U38G,0.04
22,G5A C18U C31U G33C G36U,0.2
23,G5U A6C G22A A39G,0.05
24,A4U C10G A14C,0.02

row,Variant,self-cleavage
1,A14G G27A G33A G35C G40C,0.02
2,A6U U20A G27A A39U,0.58
3,G17C C23A A26C G27U G35C C46G,0.02
4,C3A C10G G19C G29A,0.04
5,C15A C23G U32A C46G,0.03
6,A11U C15U C18U G22C G29A,0.07
7,A6C U28A G36U A41G,0.06
8,G1C G27C G36A,0.16
9,G2U C3A A6G G21A G22A G40A,0.02
10,C15U C23A G29U G40C,0.15
11,U34G A39G U43A,0.03
12,U9A C37G C46G,0.06
13,C13A G22U C31U U32A,0.1
14,A11U U20G C42G,0
15,C3A C10G A24C G35U,0.03
16,C3G A12G A41C,0.03
17,C3A G7C C10A,0.05
18,G5C U20G G21U C23G,0.02
19,G21C G27U A39C A41G,0.05
20,U9A A16C A24G C45G,0.01
21,A4C A6U C13G C31U U32G,0.02
22,A4C C31A C42U,0.03
23,G22A U32C A39C G44U,0.08
24,U32A G33C C45A,0.02

row,Variant,self-cleavage
1,G2C A6G A12U G17A C18G A25G G35U A41G C45U,0
2,G7A C10U C15U G17U G27A G30C,0.05
3,G5C G19A G27C U28G G29C G33A G35U C42U,0.01
4,G5C C15U G21C G29C G40U,0.07
5,G7C C8U C45G,0.79
6,G1C C10A U32A C46A,0
7,G5A C10U U20A U32C G40A U43A,0.03
8,G2A A4C G40A U43C C45U,0.1
9,C23U G30U U32G G33U U38A,0.04
10,A25U U43C C45A,0.07
11,A14U C15A G21C A39U C42G,0.01
12,C3U A6U A26C,0.58
13,G5A C15A G19U G36U C37U,0.1
14,G7C C18G A25C U32A C42U,0.01
15,G2A C18A G22C,0.8
16,A14U A16G G19U U38C,0.22
17,A16G A41G C46G,0.08
18,C3A G5U A26G,0.22
19,G17A C23G A24C,0.08
20,A16U G19A G35C,0.05
21,C3A C15G G35C,0.06
22,A11G A26C G29U U38A,0.03
23,U20C G33A G40C,0.03
